Drawing on the supplement of paper PMC4604168 (melanoma cell lines), this text covers cell count for 13 compounds.

The list shows a part of the results. Most values come without repeats; read them as rough.
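Note: cell number obtained by counting DAPI-stained nuclei in high-throughput microscope images with image analysis software, screen run in 1,536-well plates.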

The experiment concerns LOXIMVI. Put plainly: cell count relative to DMSO control; melanoma cells; higher = more viable cells. To be noted: library dose: low library concentration; 72 h.
`Cc1cc(Nc2cc(N3CCN(C)CC3)nc(Sc3ccc(NC(=O)C4CC4)cc3)n2)n[nH]1` [Tozasertib] + CC(C)CCN1c2nc(Nc3cc(F)c(O)c(F)c3)ncc2N(C)C(=O)C1C [BID1870] (first compound 0.006 µM, partner dose 0.2 µM) had a cell count of 87.3%.
In turn, `N#CC[C@H](C1CCCC1)n1cc(-c2ncnc3[nH]ccc23)cn1` [ruxolitinib] + COc1ccc(-c2ccc3c(N4CCOCC4)nc(N4C[C@@H](C)O[C@@H](C)C4)nc3n2)cc1CO [KU0063794] (first compound 1 µM, partner dose 0.02 µM) yielded a cell count of 76.6%.
For `Cc1cc(Nc2cc(N3CCN(C)CC3)nc(Sc3ccc(NC(=O)C4CC4)cc3)n2)n[nH]1` [Tozasertib] + Cc1cc([N+](=O)[O-])ccc1NS(=O)(=O)c1cc(Cl)ccc1Cl [FH535] (first compound 0.006 µM, partner dose 1 µM) the value was 96.4%; for `CC[C@]1(O)C[C@H]2CN(CCc3c([nH]c4ccccc34)[C@@](C(=O)OC)(c3cc4c(cc3OC)N(C=O)[C@H]3[C@@](O)(C(=O)OC)[C@H](OC(C)=O)[C@]5(CC)C=CCN6CC[C@]43[C@@H]65)C2)C1` [vincristine] + c1cc(-c2cnn3cc(-c4ccc(OCCN5CCCCC5)cc4)cnc23)ccn1 [Dorsomorphin] (first compound 0.0001 µM, partner dose 0.4 µM), 69.6%; for `N#CC[C@H](C1CCCC1)n1cc(-c2ncnc3[nH]ccc23)cn1` [ruxolitinib] + Oc1nc(-c2ccc(C(F)(F)F)cc2)nc2c1CSCC2 [XAV939] (first compound 1 µM, partner dose 2 µM), 99.7%.
The value for `Cc1cc(Nc2cc(N3CCN(C)CC3)nc(Sc3ccc(NC(=O)C4CC4)cc3)n2)n[nH]1` [Tozasertib] + Cn1cncc1[C@@](N)(c1ccc(Cl)cc1)c1ccc2c(c1)c(-c1cccc(Cl)c1)cc(=O)n2C [tipifarnib] (first compound 0.006 µM, partner dose 0.01 µM) was 97.5%; that for `CC[C@]1(O)C[C@H]2CN(CCc3c([nH]c4ccccc34)[C@@](C(=O)OC)(c3cc4c(cc3OC)N(C=O)[C@H]3[C@@](O)(C(=O)OC)[C@H](OC(C)=O)[C@]5(CC)C=CCN6CC[C@]43[C@@H]65)C2)C1` [vincristine] + NC(=O)Nc1cc(-c2cccc(F)c2)sc1C(=O)N[C@H]1CCCNC1 [AZD7762] (first compound 0.0001 µM, partner dose 0.02 µM) was 58.3%; that for `Cc1cc(Nc2cc(N3CCN(C)CC3)nc(Sc3ccc(NC(=O)C4CC4)cc3)n2)n[nH]1` [Tozasertib] + O=C1NC(=O)/C(=C/c2ccc(-c3ccc(F)cc3O)o2)S1 [AS252424] (first compound 0.006 µM, partner dose 1 µM) was 93.1%.
The value for `CC[C@]1(O)C[C@H]2CN(CCc3c([nH]c4ccccc34)[C@@](C(=O)OC)(c3cc4c(cc3OC)N(C=O)[C@H]3[C@@](O)(C(=O)OC)[C@H](OC(C)=O)[C@]5(CC)C=CCN6CC[C@]43[C@@H]65)C2)C1` [vincristine] + Cc1cc(N2CCOCC2)cc2[nH]c(-c3c(NC[C@@H](O)c4cccc(Cl)c4)cc[nH]c3=O)nc12 [BMS536924] (first compound 0.0001 µM, partner dose 0.2 µM) was 46.8%.
For `CC[C@]1(O)C[C@H]2CN(CCc3c([nH]c4ccccc34)[C@@](C(=O)OC)(c3cc4c(cc3OC)N(C=O)[C@H]3[C@@](O)(C(=O)OC)[C@H](OC(C)=O)[C@]5(CC)C=CCN6CC[C@]43[C@@H]65)C2)C1` [vincristine] + NCC(=O)Nc1ccc(-n2nc(C(F)(F)F)cc2-c2ccc3c(ccc4ccccc43)c2)cc1 [OSU03012] (first compound 0.0001 µM, partner dose 1 µM), the cell count came to 77.6%.
For `Cc1cc(Nc2cc(N3CCN(C)CC3)nc(Sc3ccc(NC(=O)C4CC4)cc3)n2)n[nH]1` [Tozasertib] + Oc1nc(-c2ccc(C(F)(F)F)cc2)nc2c1CSCC2 [XAV939] (first compound 0.006 µM, partner dose 2 µM) the value was 81.1%; for `CC[C@]1(O)C[C@H]2CN(CCc3c([nH]c4ccccc34)[C@@](C(=O)OC)(c3cc4c(cc3OC)N(C=O)[C@H]3[C@@](O)(C(=O)OC)[C@H](OC(C)=O)[C@]5(CC)C=CCN6CC[C@]43[C@@H]65)C2)C1` [vincristine] + COC(=O)c1sccc1S(=O)(=O)Nc1ccc(Nc2ccccc2)cc1OC [GSK0660] (first compound 0.0001 µM, partner dose 1 µM), 98.9%.
For `Cc1cc(Nc2cc(N3CCN(C)CC3)nc(Sc3ccc(NC(=O)C4CC4)cc3)n2)n[nH]1` [Tozasertib] + N#Cc1c(O)c2c(-c3ccc(-c4ccccc4O)cc3)csc2[nH]c1=O [A769662] (first compound 0.006 µM, partner dose 2 µM) the value was 82.3%.
